The campaign covered roughly 110,000 compounds. About 230 (0.21%) showed an effect of 50% or more. The list shows a part of the results.
molecular target: DPAP1 (Plasmodium falciparum, UniProt Q8IIJ9); assay: primary screen, percent inhibition; read by cleavage of a fluorogenic dipeptide substrate; higher = more effect of the substance; set-up: species or system P. falciparum D10 trophozoite lysates; single well
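Also: 30 min substrate incubation versus DMSO and 10 µM JCP410 controls.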

DPAP1, sequence (Q8IIJ9 whole entry, looked up): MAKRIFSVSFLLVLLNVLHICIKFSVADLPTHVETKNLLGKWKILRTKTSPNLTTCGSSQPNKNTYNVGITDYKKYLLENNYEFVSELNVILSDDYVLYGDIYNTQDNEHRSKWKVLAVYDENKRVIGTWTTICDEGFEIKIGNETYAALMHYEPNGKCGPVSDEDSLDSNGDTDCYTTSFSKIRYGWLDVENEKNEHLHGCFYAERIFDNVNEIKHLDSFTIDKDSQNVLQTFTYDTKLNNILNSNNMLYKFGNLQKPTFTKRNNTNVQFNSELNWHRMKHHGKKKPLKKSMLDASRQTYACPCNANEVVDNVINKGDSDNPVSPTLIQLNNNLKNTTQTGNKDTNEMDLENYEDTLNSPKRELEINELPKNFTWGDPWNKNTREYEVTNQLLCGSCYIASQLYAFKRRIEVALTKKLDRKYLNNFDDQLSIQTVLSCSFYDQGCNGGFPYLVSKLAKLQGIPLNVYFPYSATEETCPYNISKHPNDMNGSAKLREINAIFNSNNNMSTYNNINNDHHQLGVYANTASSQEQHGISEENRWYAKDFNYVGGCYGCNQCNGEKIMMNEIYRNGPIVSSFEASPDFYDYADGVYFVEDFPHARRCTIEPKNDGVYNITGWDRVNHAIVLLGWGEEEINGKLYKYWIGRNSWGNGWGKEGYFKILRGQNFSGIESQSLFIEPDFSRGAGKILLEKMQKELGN

Row | Structure (SMILES) | % Inhibition @ 10 uM [%]
1 | O=C(CN1CCOCC1)N1CCN(C(=O)CN2CCOCC2)CC1 | -1.42
2 | COc1cc2c(cc1OC)C(C(=O)NCc1ccc(F)cc1)C(c1cccs1)N(C)C2=O (stereo not drawn) | 8.16
3 | Cc1ccc2nc(NCCCO)nc(-c3ccccc3)c2c1 | -10.8
4 | CN(CC(=O)N1CCN(C2CCCCC2)CC1)S(=O)(=O)c1ccc2[nH]c(-c3ccccc3)nc2c1 | 3.57
5 | COc1cc(/C=C2\N=C(c3ccccc3)OC2=O)ccc1OCc1c(C)no[n+]1[O-] | 23.4
6 | C=CCn1c(=S)[nH]c2ccccc2c1=O | 4.52
7 | CCc1ccc(-c2nc(CSCC(=O)NC(C)CC)c(C)o2)cc1 (stereo not drawn) | 2.37
8 | O=C(CSc1nnc(COc2ccc(Cl)cc2)o1)N1CCCCC1 | 0.738
9 | O=C(O)COc1ccc(/C=C2/SC(=O)NC2=O)cc1 | 4.86
10 | COC(=O)c1cc(S(=O)(=O)NC2CCC(C)CC2)cn1C (stereo not drawn) | -6.59
11 | COc1cc(C2C3=C(O)CC(C)(C)CC3=NC(C)=C2C(=O)Nc2cccc(C)n2)cc(OC)c1OC (stereo not drawn) | -5.79
12 | Cc1ccccc1CN(CC(C)O)CC(C)O (stereo not drawn) | 3.48
13 | Cc1cc(C)c(C)c(S(=O)(=O)NCc2ccc(C(=O)NCC3CCCO3)cc2)c1C (stereo not drawn) | -2.85
14 | O=C(Nc1nccs1)c1ccc(COc2ccc(Cl)cc2Cl)o1 | 1.92
15 | CCCOc1ccc(CNC(=O)C(C)n2nc(C)c3sc4ccccc4c3c2=O)cc1 (stereo not drawn) | -4.26
16 | Cc1cccc(OCCCCn2ccnc2)c1 | -2.28
17 | COc1cc(CNCCSc2nnnn2C)cc(Br)c1OCC(N)=O | -1.71
18 | COc1ccc(CC(C)NCc2ccc(C(F)(F)F)cc2)cc1 (stereo not drawn) | 1.26
19 | COC(=O)Nc1ccccc1C(=O)N1CCN(c2ccc(C)cc2)CC1 | -2.76
20 | Cc1nn(Cc2ccccc2)c(C)c1NC(=O)CSc1nc2sc3c(c2c(=O)n1C)CCC3 | -1.28
21 | COc1cc(/C=C2\SC(=O)N(Cc3ccc(F)cc3)C2=O)cc(OC)c1OC | 3.8
22 | CCCNC(=O)c1nc(C)c(C)nc1C(=O)Nc1ccccc1C | -0.487
23 | COCCCNC(=O)c1cc(-c2ccc(OC)cc2OC)nc2ccccc12 | -7.09
24 | Cc1cccc(-c2nc(O)c3c(n2)Oc2ccccc2C3)c1 | 12.6
25 | CCCSc1nc(O)c(CC)c(=O)n1-c1ccccc1 | 3.47

Row | Structure (SMILES) | % Inhibition @ 10 uM [%]
26 | c1ccc(-c2cc(-c3ccccc3)n3ncnc3n2)cc1 | 5.93
27 | COc1cccc(-n2c(C)cc(/C=C3\C(=N)N4C(C)=CSC4=NC3=O)c2C)c1 | 2.25
28 | NC(CSC12CC3CC(CC(C3)C1)C2)C(=O)O (stereo not drawn) | 1.66
29 | COC(=O)c1cc(-c2ccco2)c2c(=O)[nH]c(=O)n(C)c2n1 | -4.07
30 | C=CCO/C(O)=C1\C(C)=Nc2nnnn2C1c1cccc(OC)c1OC (stereo not drawn) | -1.62
31 | CCN(CC)CCNC(=O)C1CCN(c2nnc(C)c3c(C)n(-c4ccc(C)cc4)nc23)CC1 | 4.23
32 | CCN1C(=O)c2cccc3c(S(=O)(=O)N(C)C)ccc1c23 | -3.09
33 | COC(=O)c1[nH]c2ccc(C)cc2c1NC(C)=O | 0.0198
34 | CC1=C(C(=O)Nc2ccccn2)C(c2cccc(Cl)c2Cl)C2=C(O)CC(C)(C)CC2=N1 (stereo not drawn) | 4.7
35 | CCCN(C(=O)c1ccco1)c1nc(-c2cccc(Cl)c2)cs1 | 11.9
36 | O=C(O)CP(=O)(O)c1ccc(Cl)cc1 | -1.97
37 | COc1ccc(Br)cc1CNC1CCCCC1C (stereo not drawn) | -6.08
38 | O=C(CCc1nc2ccccc2[nH]1)N1CCN(C(=O)c2ccco2)CC1 | 0.738
39 | COc1ccc(NCC(O)Cn2c(C)c(C)c3ccccc32)cc1 (stereo not drawn) | 3.53
40 | COc1ccc(OC)c(C2NCCc3[nH]cnc32)c1 (stereo not drawn) | 0.774
41 | O=C(O)CCCCCNC(=O)/C(=C/c1ccc(Cl)cc1)NC(=O)c1ccccc1 | 8.6
42 | CCCCn1c2c(c3ccccc31)CCc1nonc1-2 | -2.15
43 | Cc1ccc(OCC(=O)Nc2ccc(O)cc2)c(C)c1 | -5.6
44 | COc1cccc(C(=O)Nc2ccc(F)c(Cl)c2)c1 | -2.22
45 | CCN(CC)c1nc(C)cc(COC)c1C#N | 1.72
46 | Cc1cc(C(=O)C(=O)Nc2nnc(-c3ccncc3)s2)c(C)n1-c1ccccc1 | 3.92
47 | Cc1nn(-c2ccccc2)c2c1C(C(F)(F)F)(C(F)(F)F)C(C#N)=C(N)O2 | -0.25
48 | CCOC(=O)c1sc2nc(N)c(C#N)cc2c1N | -1.07
49 | COc1ccc(Cc2nc3c4cnn(-c5ccc(C)c(C)c5)c4ncn3n2)cc1OC | 0.569
50 | Fc1ccc(N2CCN(Cc3nc(-c4ccccc4)no3)CC2)cc1 | -5.7

Row | Structure (SMILES) | % Inhibition @ 10 uM [%]
51 | O=C(NCCSc1c(-c2ccc(Br)cc2)[nH]c2ccccc12)c1ccncc1 | -1.73
52 | COc1ccc(NC(=O)c2cc(Cl)cc(Cl)c2OC)cc1 | 0.989
53 | Cc1ccc2nsnc2c1S(=O)(=O)Nc1cccc2nsnc12 | -4.89
54 | CCC(CO)NS(=O)(=O)c1cc(-c2nn(C)c(=O)c3ccccc23)ccc1C (stereo not drawn) | -5.85
55 | O=C(NCc1ccccc1Cl)C1CCN(S(=O)(=O)N2CCCCCC2)CC1 | 4.36
56 | Cc1c2cnn(CC(=O)N3CCCCCC3)c(=O)c2c(C)n1Cc1ccc(Cl)cc1 | -0.447
57 | CCN1CCN(C(=O)c2ccc(CS(=O)Cc3ccc(C)cc3)o2)CC1 (stereo not drawn) | 0.677
58 | C=CCc1cc(C=C2C(=O)c3ccccc3C2=O)cc(OCC)c1O | 0.343
59 | CN(C)c1ccc(/C=C(\NC(=O)c2ccccc2)C(=O)NCCO)cc1 | 4.08
60 | CCOC(=O)c1ccc2nc(C(F)(F)F)nc(N3CC(C)OC(C)C3)c2c1 (stereo not drawn) | -4.78
61 | Cn1c(=O)c2ccccc2n2c(CCC(=O)NCCc3ccccc3)nnc12 | -2.42
62 | O=C(NCc1ccc(F)cc1)C1=Cc2sc3c(c2CS1)CCCC3 | -2.65
63 | COc1cccc(C2=NS(=O)(=O)N(C)C(C(=O)N3CCN(C(=O)C(C)(C)C)CC3)=C2)c1 | 2.32
64 | CC1=NN(c2ccc(Cl)c(Cl)c2)C(=O)/C1=C/c1cc2ccccc2[nH]1 | 0.219
65 | CC(C)(C)OC(=O)N[C@@H](Cc1cn(C=O)c2ccccc12)C(=O)NCC#N | -5.21
66 | CCC1CCCCN1S(=O)(=O)c1ccc2nc(O)cc(C(=O)NCCCN3CCCCC3)c2c1 (stereo not drawn) | 2.05
67 | Cc1sc2ncnc(SC(C)C(=O)O)c2c1C (stereo not drawn) | 5.75
68 | CC1CCN(C(=O)Cn2cnc3c(nnn3Cc3ccccc3F)c2=O)CC1 | 24
69 | Nc1ncc(-c2ccc([N+](=O)[O-])cc2)cn1 | 3.53
70 | Cc1cccc(-c2nnn(-c3cccc(Cl)c3C)n2)c1 | -5.33
71 | COc1cc2c(cc1OC)CN(Cc1cc(Br)cs1)CC2 | 0.605
72 | Cc1ccc(OCC(=O)Nc2ccc(Cl)cc2)cc1 | -2.28
73 | Cc1cccn2c(=O)c(/C=C(\C#N)C(=O)NCc3ccccc3)c(Oc3ccccc3)nc12 | 0.101
74 | O=C1N/C(=C/c2ccc3c(c2)OCCO3)C(=O)N1Cc1ccc(F)cc1 | 1.91
75 | COc1nc(C)ccc1-c1noc(-c2ccccc2C)n1 | 0.415

Row | Structure (SMILES) | % Inhibition @ 10 uM [%]
76 | CCN1CCCC1CNC(=O)CSCc1nc(-c2ccccc2C)oc1C (stereo not drawn) | 3.99
77 | N#Cc1c2n(c3c(O)ncnc13)CCCCC2 | 1.9
78 | COc1ccc(S(=O)(=O)Cc2ccc(C(=O)N3CCCCC3)o2)cc1 | -3.09
79 | CCOc1cccc(NC(=O)c2cccc(C)c2)c1 | 6.43
80 | CCC(Sc1nc2nnc(C)c-2c(N)n1-c1ccc(Cl)c(C)c1)C(=O)N(CC)CC (stereo not drawn) | -0.256
81 | CCC(=O)NC1(C(F)(F)F)C(=O)Nc2c1c(=O)[nH]c(=O)n2-c1ccc(C)cc1 (stereo not drawn) | 2.42
82 | COc1ccc(NC(=O)CSCc2ccc(Br)cc2)cc1 | -3.16
83 | CCc1ccc(/C=N/n2c(C)nnc2-n2nc(C)cc2C)cc1 | 4.18
84 | CCN(CC)S(=O)(=O)c1cc(C(=O)Nc2nnc(-c3ccccc3)s2)ccc1C | 0.997
85 | O=[N+]([O-])c1ccc(N2CCN(Cc3ccc4c(c3)OCO4)CC2)cc1 | -3.56
86 | C=Cc1ccc(Cn2c(C(=O)O)c(CNCc3ccccc3OCC)c3ccccc32)cc1 | -1.09
87 | CN1CCC(N(C)Cc2cc([N+](=O)[O-])ccc2Cl)CC1 | -6.21
88 | Cc1cc(OCCCCOc2ccc(S(N)(=O)=O)c(C)c2)ccc1S(N)(=O)=O | 1.52
89 | CCCc1nc2nc(C)cc(N3CCN(Cc4ccccc4)CC3)n2n1 | -5.63
90 | c1ccc2c(c1)nc(N1CCOCC1)n2CCN1CCOCC1 | 7.99
91 | CCCN1C/C(=C\c2cccc3ccccc23)C(=O)/C(=C/c2cccc3ccccc23)C1 | 4.54
92 | CCCCc1ccc(NC(=O)C(c2ccccc2)c2ccccc2)cc1 | 1.62
93 | CN(C)C(=O)C1C2NC(=S)NC1(C)Oc1ccccc12 (stereo not drawn) | -0.284
94 | COc1ccc(-n2c(C)nnc2SCc2nc(-c3cccs3)no2)cc1 | -2.21
95 | CC1CCCCC1NC(=O)CCCc1nnc2n(C)c(=O)c3sccc3n12 (stereo not drawn) | -8.11
96 | Cc1ccc2c(CNCc3ccc4c(c3)OCO4)c(C(=O)O)n(Cc3ccccc3C)c2c1 | 6.57
97 | CCOC(=O)N1CCC(NC(=O)COCc2cc(-c3ccc(F)cc3)on2)CC1 | -2.13
98 | COc1cc(CNC(=O)Cn2nc(C(F)(F)F)c(Br)c2C)cc(OC)c1 | 0.64
99 | O=C1c2n[nH]c(-c3ccccc3O)c2C(c2ccccc2)N1Cc1ccco1 (stereo not drawn) | 0.366

From publication PMC6919601, “Identification of Plasmodium dipeptidyl aminopeptidase allosteric inhibitors by high throughput screening” (PLoS ONE, 2019)
